# Data published in the supplement of paper PMC10126150.
# Values marked as one replicate rest on one cluster of the flow cell; about a third of the high ones do not repeat.
# Test system: ATP
# Test: switch fluorescence ratio, 500 uM ATP over buffer (Cy3 cluster intensity, sum of 5 cycles each) (fold (ratio)); higher = stronger signal-on switching upon ATP binding; sequences stand for … in TCGTCGGCAGCGTCAGATGTGTATAAGAGACAGTTTTTTTTTTTTTTTTTTTTTTTTT…TC
# Details: aptamer strand: ATP DNA aptamer (quencher-CACCTGGGGGAGTATTGCGGAGGAAGG + anchor), 100 nM annealed; ATP concentration: 500 uM; one replicate
# Method in brief: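 Clusters with intensities outside 100-1000 RFU were excluded. The remaining Cy3-labelled switching-strand clusters on a modified Illumina MiSeq flow-cell had been annealed to 100 nM quencher-labelled ATP aptamer and imaged in selection buffer, then after 15 min with 500 uM ATP at 22 °C, for five cycles separated by NaOH stripping and re-annealing. The fluorescence ratio, averaged per switch-domain sequence, is each cluster's summed target-cycle Cy3 intensity over its summed buffer-cycle Cy3 intensity.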
# 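Further: ATP exposure 15 min at 22 °C before imaging.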
row,Sequence,switch fluorescence ratio
1,GAGTCTAATT,1.02
2,GAGTCTACGT,0.989
3,GAGTCTCATT,0.989
4,GAGTCTCGAA,0.975
5,GAGTGAACGA,1.06
6,GAGTGCATCT,0.994
7,GAGTGCCATC,0.97
8,GAGTGCCTAG,0.956
9,GAGTGCGG,1.02
10,GAGTGCGGCC,1.04
11,GAGTGGTAAA,1.05
12,GAGTGTCCAA,1.02
13,GAGTTACATT,0.983
14,GAGTTAGCTT,0.967
15,GAGTTCAGTC,0.969
16,GAGTTCTTCG,0.963
17,GAGTTGAGGT,0.998
18,GAGTTGCTAA,0.97
19,GAGTTGGCGG,0.938
20,GATAAAATCT,1.05
21,GATAAATAGA,0.99
22,GATAACCGAA,1.04

row,Sequence,switch fluorescence ratio
1,GATAACCTGG,1.05
2,GATAACGCTA,1.16
3,GATAACTCTC,1.08
4,GATAATACTA,0.982
5,GATAATCAGC,1
6,GATAATCGAC,1.02
7,GATACACAAT,1.06
8,GATACACAGG,1.28
9,GATACGGACC,1.59
10,GATACGTCCA,1
11,GATAGAGCCT,1.1
12,GATAGAGCGA,1.02
13,GATAGCCCAT,0.992
14,GATAGCGTTT,1.02
15,GATAGCTCGG,0.991
16,GATAGGACTG,0.903
17,GATAGGCCGC,1.03
18,GATAGGTGCG,1.03
19,GATAGTCTAC,0.979
20,GATAGTTTGG,1.01
21,GATATACCTA,1.12
22,GATATCCAAG,0.932

row,Sequence,switch fluorescence ratio
1,GATATCGCTC,1.07
2,GATATGATTG,0.99
3,GATATGCATG,0.987
4,GATATGTAGC,1
5,GATATGTTCG,1.01
6,GATATGTTTG,0.977
7,GATATTTATC,1.03
8,GATATTTCAC,1.03
9,GATCAAGCC,1.03
10,GATCAAGCTT,0.948
11,GATCAGAATG,0.986
12,GATCATACAA,1.04
13,GATCATCAAC,1.01
14,GATCATGGAG,1.01
15,GATCATGGTC,1.03
16,GATCCCCTGT,0.996
17,GATCCCTAAT,1.03
18,GATCCCTGTT,0.957
19,GATCCGAGTC,1.08
20,GATCCGCTTA,3.42
21,GATCCGGTAC,4.42
22,GATCCTCAAC,1.01

row,Sequence,switch fluorescence ratio
1,GATCGAATCT,1.01
2,GATCGCCCAA,1.03
3,GATCGCCTGT,1.01
4,GATCGCGGTA,1.02
5,GATCGGAATC,2.47
6,GATCGGCACG,1.02
7,GATCGTAGCA,0.99
8,GATCGTGTAA,1.01
9,GATCTACTGG,0.984
10,GATCTAGGA,1.01
11,GATCTCATCG,1.03
12,GATCTCCTTG,0.988
13,GATCTCGGTG,0.966
14,GATCTCGTAC,1.09
15,GATCTGCTGC,1.14
16,GATCTGGGA,1
17,GATCTTCTCC,1.06
18,GATCTTTAGC,1.03
19,GATGACGGAC,1.14
